Data from the supplement of paper PMC11417369.
± gives the standard deviation of the averaged measurements. The list shows a part of the results.

What follows are sequences tested on PfAP2-G AP2 domain (GST-tagged) (assay: gcPBM binding intensity (ln(normalized median fluorescence intensity)); higher = stronger DNA binding).
Outline: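 The binding buffer was 1× PBS containing 1% milk, 0.2 mg/ml BSA, 0.5% salmon testes DNA and 0.03% Triton X-100. In it, GST-tagged P. falciparum DNA-binding domains expressed in E. coli were applied for 1 h to an Agilent 4 × 180k array of primer-extended double-stranded 36-bp intergenic genomic probes plus negative controls. Binding intensity, read with Alexa488 anti-GST antibody and a 488 nm scan, is the highest Masliner-normalised natural-log median intensity across replicate spots of either probe orientation.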
“AATTTAAAAGCTTGTGGTACTTTTGCTCTTCCTTTG [XGTACX_site3148]” was tested, and the “gcPBM binding intensity (ln)” value was 11 ± 0.54.
In the case of “TCAACAAATAAACTTTGTACATATATACAAAATATA [XGTACX_site4447]”, the “gcPBM binding intensity (ln)” value is reported as 10.8 ± 0.43.
“AAAATAATTAAAAAAAGTACTCGTAATATAAATATA [XGTACX_site4967]” was tested, and the “gcPBM binding intensity (ln)” value was 11.4 ± 0.98.
For “TACATCGGTATATAAACACACAACAAAAATGCTTAC [CACACA_site5983]”, the “gcPBM binding intensity (ln)” value was 9.895 ± 0.007.
With “TTTTTTTAAAAAAACAAAAAAAAAAAAAATATAAAA [TGCATGCA_negctrl_site511]” the “gcPBM binding intensity (ln)” value was 9.82 ± 0.28.
With “TTAAAAGATATTACATGTACATATTCAATATATGTA [XGTACX_site5895]” the “gcPBM binding intensity (ln)” value was 11.1 ± 0.69.
For “ACAAATAAATAAAAATGTACAAATGAATACATCTTA [XGTACX_site3780]”, the “gcPBM binding intensity (ln)” value was 10.7 ± 0.37.
In the case of “ATATAAAGAAATTAATTTTTCAACAATAAAAATATA [CACACA_negctrl_site1262]”, the “gcPBM binding intensity (ln)” value is reported as 9.645 ± 0.092.
In the case of “TACATTTATAATAATACACACATAAATTTACATTTT [CACACA_site3463]”, the “gcPBM binding intensity (ln)” value is reported as 10.1 ± 0.16.
With “TATGAAAATTAAGTTTGTACACAAGTGGAAAAAAAA [XGTACX_site6129]” the “gcPBM binding intensity (ln)” value was 11.2 ± 0.69.
In the case of “AAAAAAAAAAAAAAAAAAAAAAAAAAAAAAAAAAAT [CACACA_negctrl_site882]”, the “gcPBM binding intensity (ln)” value is reported as 11.3 ± 0.62.
With “AAATTAAATAAATTTACACACTAAAAGTTACCTATA [CACACA_site6623]” the “gcPBM binding intensity (ln)” value was 9.82 ± 0.085.
With “TTTGTTATTTATTAGTGTACAAAAAAGCATTTCAAA [XGTACX_site8729]” the “gcPBM binding intensity (ln)” value was 11.1 ± 0.71.
For TTTTTTTTGCGTACAGTGCAAATTTATTTACTATTC, the “gcPBM binding intensity (ln)” value was 11.7 ± 1.1.
In the case of “AATAATGTATAATGATGTACAAAAAAGGAAGACATA [XGTACX_site2474]”, the “gcPBM binding intensity (ln)” value is reported as 11 ± 0.51.
“ATATTTTGTAATATTTGTACATATATTATACATATA [XGTACX_site963]” was tested, and the “gcPBM binding intensity (ln)” value was 10.9 ± 0.54.
With “CAAAACATTTTATCTACACACATATATAAATAAATA [CACACA_site3220]” the “gcPBM binding intensity (ln)” value was 9.885 ± 0.035.
“AATAAAACATAATAATGTACTCAAAGGTTTAACTTG [XGTACX_site4711]” was tested, and the “gcPBM binding intensity (ln)” value was 11.2 ± 0.72.
With “ATTAAATAAAAAAACACACACATATATACCTATATA [CACACA_site5837]” the “gcPBM binding intensity (ln)” value was 9.96 ± 0.13.
With “GGGGGGAGGGTGAATACACACGTAATAATCATAAAC [CACACA_site8502]” the “gcPBM binding intensity (ln)” value was 11.6 ± 0.79.
“AAAATAAAAGAATAAAAATATGAAACTTTTTTAAAA [GTGCAC_negctrl_site348]” was tested, and the “gcPBM binding intensity (ln)” value was 9.58 ± 0.17.
“AACGTGTGGAGAATTATAAATGAGTAAAAAATATAT [XGTACX_negctrl_site562]” was tested, and the “gcPBM binding intensity (ln)” value was 9.96 ± 0.23.
In the case of “GCAAATCAATTTTTTTTTAAAACTCATTTTTTCGTT [CACACA_negctrl_site1136]”, the “gcPBM binding intensity (ln)” value is reported as 9.87 ± 0.23.
“TCCGTTATATATGTGTGTACATATAATATATCCTCA [XGTACX_site2588]” was tested, and the “gcPBM binding intensity (ln)” value was 11.5 ± 0.98.
